From paper PMC12040169 (PLOS Biology, 2025)
Some of the results follow.

Tested on: T1, C. trachomatis L2/434/Bu expressing GFP (CTL2-GFP)
T1 construct: L2/434/Bu GFP intracellular growth in HeLa cells
Set-up: species or system HeLa; C. trachomatis total inclusion area by high-content imaging, normalised to DMSO
Conditions: total inclusion area; 28.5 h, 10 µM; inhibitor
Outline: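 High-content images of fixed, Hoechst-stained infected cultures supply inclusion area and count (growth) plus nuclei number (viability), complementing bulk GFP/resorufin fluorescence. MIC determination is unchanged from the primary assay.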

Going from `NS(=O)(=O)c1ccc(CCNC(=O)CN2C(=O)c3ccccc3C2=O)cc1` [CBK264377] to `Cc1ccccc1C(=O)N1C[C@H]2NC(=O)c3ccccc3C(=O)[C@@]2(C)C1` [CBK285316], the “% of control remaining” value falls from 97.4108 to 78.8276.

Going from `CSc1ccccc1NC(=O)c1cc(Cl)sc1Cl` [CBK057008] to `O=C(Nc1ccc2[nH]ncc2c1)c1ccccc1Cl` [CBK000191], the “% of control remaining” value rises from 84.2534 to 102.536.

First: CC(=O)Nc1cccc(C(=O)N2CCN(Cc3ccccn3)CC2)c1 [CBK304067]
Second: CC(=O)Nc1cccc(-c2nccnc2C2CCCN(CCc3ccccc3)C2)c1 (centres unmarked) [CBK286128]
The “% of control remaining” value of the first is lower: 30.6554 for the first, 73.7989 for the second.

First: CN1CCN(c2cc3ncccc3cc2F)CC1 [CBK066904]
Second: Cc1cc(F)c(S(=O)(=O)N2CCN(C)CC2)cc1NC(=O)c1cc2ccccc2o1 [CBK034419C]
The “% of control remaining” value of the first is higher: 89.9729 for the first, 86.1167 for the second.

Compared with `CC(CN(C)C(=O)c1c[nH]nn1)Oc1ccc(Cl)c(Cl)c1` (centres unmarked) [CBK306160], `Cc1n[nH]c(C)c1CCC(=O)N/N=C\c1ccc(Cl)c(Cl)c1` [CBK263395] is higher in “% of control remaining” value: 32.8361 for the first, 108.845 for the second.

First: Cc1cc(NN(Cc2ccccc2)Cc2ccccc2)n2c(nc3ccccc32)c1C#N [CBK262666]
Second: O=C(O)C1N(Cc2ccccc2)CCCN1Cc1ccccc1 [CBK265196]
The “% of control remaining” value of the first is higher: 115.208 for the first, 89.1806 for the second.

First: Nc1nc(COc2ccc(F)cc2)nc(N2CCOCC2)n1 [CBK288183]
Second: O=S(=O)(c1ccc(OC(F)(F)F)cc1)N1CCN(Cc2ccc3c(c2)OCO3)CC1 [CBK200040]
The “% of control remaining” value of the first is lower: 95.7653 for the first, 98.513 for the second.

First: CN(C)c1cccc(-c2cnc3[nH]c(=O)n(CCCO)c3n2)c1 [CBK065052]
Second: CCCn1c(SCC(=O)N2c3ccc(F)cc3CCC2C)nnc1-c1cccnc1 (centres unmarked) [CBK059187]
The “% of control remaining” value of the first is higher: 108.182 for the first, 49.1821 for the second.

Going from `c1ccc(C2(CN3CCN(Cc4cccnc4)CC3)CC2)cc1` [CBK282793] to `CCN1CCN(C(=O)Cc2cccnc2)CC1` [CBK200375], the “% of control remaining” value rises from 72.3663 to 97.5873.

First: Cc1cc(COc2ccc(C(F)(F)F)cn2)no1 [CBK115792]
Second: Cc1ccc(NCC2CCN(CC(=O)Nc3cc(C)on3)C2)nc1 (centres unmarked) [CBK306337]
The “% of control remaining” value of the first is higher: 94.389 for the first, 77.0844 for the second.

First: CCCN(CC1CC1)C(=O)CC1SC(NCC2CCCCC2)=NC1=O (centres unmarked) [CBK067014]
Second: CCCCNC(=O)NC1CCCC1 [CBK027084]
The “% of control remaining” value of the first is higher: 79.2781 for the first, 62.9024 for the second.

Going from `COc1cccc(C(=O)N2CCOC(c3cc(C(=O)NCC(C)C)c4ccccc4n3)C2)c1` (centres unmarked) [CBK285894] to `Cc1ncc(CN2CCOC(c3cc(C(=O)NCC(C)C)c4ccccc4n3)C2)s1` (centres unmarked) [CBK285897], the “% of control remaining” value falls from 116.786 to 114.219.

Going from `CN(C)S(=O)(=O)c1ccc(C(=O)C2=C(O)C(=O)N(Cc3cccnc3)C2c2ccncc2)cc1` (centres unmarked) [CBK264714] to `COc1ccc(CNC(=O)c2cc(S(=O)(=O)N(C)C)cs2)cc1` [CBK307579], the “% of control remaining” value falls from 95.1269 to 51.7764.

First: Cc1onc(-c2ccccc2)c1C(=O)NCCCn1ccnc1 [CBK262870]
Second: O=C(NCc1ccccc1OC1CCNC1)c1ccccn1 (centres unmarked) [CBK029464T]
The “% of control remaining” value of the first is lower: 57.6336 for the first, 75.1307 for the second.

Compared with `CC1Cc2ccccc2N1C(=O)c1nn(C)cc1I` (centres unmarked) [CBK058268], `Cc1cc(-c2nnc(SCC(=O)N3CCCc4ccccc43)o2)no1` [CBK268828] is higher in “% of control remaining” value: 78.2731 for the first, 102.01 for the second.

Going from `O=C(O)CCn1c(=O)cc(C(F)F)c2cn(Cc3ccccc3)nc21` [CBK286881] to `Cn1cc(CN(Cc2ccccc2)CC2CCCO2)cn1` (centres unmarked) [CBK283233], the “% of control remaining” value rises from 98.5618 to 110.015.

First: COc1cc2c(cc1OC)CN(Cc1nc3ccccc3[nH]1)CC2 [CBK126390]
Second: COc1cccc(CN2CCC(C(=O)O)CC2)c1OC [CBK286548]
The “% of control remaining” value of the first is higher: 110.791 for the first, 48.4605 for the second.

Compared with `CC(C)[C@@H](Cn1nc(-c2cccs2)ccc1=O)NC(=O)C1CC1` [CBK284297], `O=C(Cn1ccc(=O)[nH]c1=O)NCc1cccnc1OC1CCCC1` [CBK305582] is higher in “% of control remaining” value: 84.4293 for the first, 86.6265 for the second.

Going from `Cc1nn(CCC(=O)NC(C)(C)CN2CCCC(C)C2)c(C)c1C` (centres unmarked) [CBK282676] to `Cc1cc2nc(C3CCCN3C(=O)CN3CCCCC3)[nH]c2cc1C` (centres unmarked) [CBK282944], the “% of control remaining” value rises from 106.579 to 107.327.

Going from `CCOC(=O)/C(C#N)=C(\O)c1ccc(N2C(=O)c3ccc(C(=O)O)cc3C2=O)cc1` [CBK262683] to `Cc1nnc(SCc2cccc(Oc3ccccc3)c2)n1N` [CBK265714], the “% of control remaining” value rises from 102.811 to 106.959.

Going from `CCc1nc2ccc(C(=O)N3CCCCC3)cn2c1N(CC)Cc1ccc2c(c1)OCCO2` [CBK146903] to `C=CCNC(=O)N1CC[C@H]2CC(=O)N(Cc3ccc4c(c3)OCO4)CC[C@H]2C1` [CBK288794], the “% of control remaining” value rises from 84.7596 to 100.691.

First: CN(C)CCN(C)C1CCN(Cc2ccccc2)CC1 [CBK261930]
Second: O=C(Nc1ccccc1Cl)N1CCCCC1CO (centres unmarked) [CBK156180]
The “% of control remaining” value of the first is lower: 56.7286 for the first, 100.625 for the second.

First: COc1cc(CNC(=O)NC(=O)C2CCN(C(C)C)CC2)cc(OC)c1OC [CBK034800]
Second: O=C(CCc1cn2ccccc2n1)NCc1cc2n(n1)CCCNC2 [CBK307157]
The “% of control remaining” value of the first is higher: 85.4183 for the first, 82.971 for the second.

Compared with `Cc1cccc2sc(NC(=O)CCCCCNC(N)=O)nc12` [CBK296689], `O=C(Nc1ccncc1)c1cc2cc(Cl)ccc2[nH]1` [CBK107340] is lower in “% of control remaining” value: 109.407 for the first, 95.1783 for the second.

First: O=C(CN1C(=O)N2CCCN=C2c2ccccc21)N1CCCC1 [CBK284419]
Second: Cc1nc2ccccc2n1C(F)(F)C(F)F [CBK022023]
The “% of control remaining” value of the first is higher: 72.9901 for the first, 62.906 for the second.

Compared with `O=C(/C=C/c1cccnc1)Nc1c(F)cc(F)cc1OC1CCNCC1` [CBK050324T], `CCn1cc(CN(Cc2cccnc2)Cc2ccccc2OC)cn1` [CBK307224] is lower in “% of control remaining” value: 103.387 for the first, 77.5882 for the second.

For `Cc1nc(CNCc2c(C)nn(C)c2N(C)C)cs1` [CBK304808], the “% of control remaining” value was 52.6159.
